{"source": "the supplement of paper PMC11417369", "note": "The other results are listed elsewhere or left out."}
{"system": "PfHDP1 homeodomain (GST-tagged)", "test": "gcPBM binding intensity (ln(normalized median fluorescence intensity)); higher = stronger DNA binding", "summary_of_the_method": "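After 1 h on an Agilent 4 × 180k array of primer-extended double-stranded 36-bp intergenic genomic probes and negative controls, bound GST-tagged P. falciparum DNA-binding domains were detected with Alexa488 anti-GST antibody and scanned at 488 nm. The domains had been expressed in E. coli, and binding took place in 1× PBS with 1% milk, 0.2 mg/ml BSA, 0.5% salmon testes DNA and 0.03% Triton X-100. Binding intensity is the highest Masliner-normalised natural-log median intensity across replicate spots of either probe orientation.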"}
{"sequence": "TTAAAAATAATATATTGTACACATACTTATTTTAAT [XGTACX_site1348]", "gcPBM binding intensity (ln)": 6.47}
{"sequence": "TTAGGAAAACAAAAATGTACGCATATATATTATTGA [XGTACX_site8288]", "gcPBM binding intensity (ln)": 6.18}
{"sequence": "TTAATAAAAGCCCATGCACACCTTAGAAAGTTTTAT [CACACA_site8003]", "gcPBM binding intensity (ln)": 8.26}
{"sequence": "TGAGCTTCAACAATATGTACATAAAATATATTACAT [XGTACX_site4763]", "gcPBM binding intensity (ln)": 6.41}
{"sequence": "GTATTATAGTATAATACACACCCAAATATTAAAAAG [CACACA_site7404]", "gcPBM binding intensity (ln)": 7.16}
{"sequence": "TTTCTTAAAATGTTATGTACATATTTCGTTTCAAAG [XGTACX_site6102]", "gcPBM binding intensity (ln)": 6.32}
{"sequence": "TCTTTTTAATTTATATGTACTTATATTAATTATAAG [XGTACX_site7524]", "gcPBM binding intensity (ln)": 6.31}
{"sequence": "ATATATTTCAAAGGGGTGCAGGCATATTTAAGCAAA", "gcPBM binding intensity (ln)": 6.8}
{"sequence": "TGCTTTATTATTTATTGTACATGTAAAATGAGAGAG [XGTACX_site2288]", "gcPBM binding intensity (ln)": 6.81}
{"sequence": "TTTGTTTAAATTAAATGTACATAAAGAATAATATAT [XGTACX_site5093]", "gcPBM binding intensity (ln)": 6.84}
{"sequence": "TAATAACTACAAAAAAAAAAGAAAAATAGAAAAAGG [CACACA_negctrl_site1102]", "gcPBM binding intensity (ln)": 6.44}
{"sequence": "TCGTGTTAAACTTTTACACACAAACTTGCAATAATT [CACACA_site7745]", "gcPBM binding intensity (ln)": 7.73}
{"sequence": "AATTATATGAAATAAACACACATATGTAATATTACA [CACACA_site1928]", "gcPBM binding intensity (ln)": 6.49}
{"sequence": "AAAACATTGTTGAACTGTTTTATTTATAAATATAAG [XGTACX_negctrl_site393]", "gcPBM binding intensity (ln)": 6.38}
{"sequence": "ATATATATACTGTGTACACACATATGTATTTATATA [CACACA_site4600]", "gcPBM binding intensity (ln)": 7.1}
{"sequence": "GGAAAATTATCAATAGCATGCAAAATGTGAATATTA [TGCATGCA_site901]", "gcPBM binding intensity (ln)": 7.04}
{"sequence": "TATATTTGTACATGATATTTTTTTTTTCTTTTAAAA [CACACA_negctrl_site754]", "gcPBM binding intensity (ln)": 6.25}
{"sequence": "TGTATTTAGAAACATACACACATATTAAGTTTACAT [CACACA_site5689]", "gcPBM binding intensity (ln)": 6.38}
{"sequence": "ATATATCTGTATGGCACACACGGATAAATATATATA [CACACA_site4668]", "gcPBM binding intensity (ln)": 6.67}
{"sequence": "AGAATAATACAAAAATGTACATTAATAAAAAGATAG [XGTACX_site780]", "gcPBM binding intensity (ln)": 7.28}
{"sequence": "GCCAAAATATAATTTACACACTTATTAAATAATTAT [CACACA_site236]", "gcPBM binding intensity (ln)": 6.47}
{"sequence": "TTTCCTCATTTTATCATACACACTTATTTATATGTG [CACACA_site900]", "gcPBM binding intensity (ln)": 6.75}
{"sequence": "TTATTATTTCTTAGTAGTACTATATAATTTTTTTTT [XGTACX_site1847]", "gcPBM binding intensity (ln)": 6.4}
{"sequence": "ATAGTATCTGGTAGCTGTACGAGTCGTAGAGAGTAG [XGTACX_site2546]", "gcPBM binding intensity (ln)": 6.89}
{"sequence": "CATAATACAGATAACACACACAATTATACATAAAAT [CACACA_site5742]", "gcPBM binding intensity (ln)": 6.65}
{"sequence": "TATATTTAGATATATACACACATTAGCATTTTCATA [CACACA_site6902]", "gcPBM binding intensity (ln)": 6.63}
{"sequence": "CTAATGATCATATATACACACACACTAATAAAAAAA [CACACA_site9329]", "gcPBM binding intensity (ln)": 7.16}
{"sequence": "AAAGAATTTGCATATACACACAAAAAGATATATACA [CACACA_site6318]", "gcPBM binding intensity (ln)": 6.99}
{"sequence": "GTCTTAAAAATTAAAACACACGTTCACTTTCATATT [CACACA_site5803]", "gcPBM binding intensity (ln)": 6.85}
{"sequence": "ATAATGTAAAAGTAAACACACACATATATATATACA [CACACA_site8793]", "gcPBM binding intensity (ln)": 6.74}
{"sequence": "ATTTCTACTAAAAATACACACGATGATACAACGAAG [CACACA_site1755]", "gcPBM binding intensity (ln)": 6.85}
{"sequence": "TATATATATATATAATGTACATATATATAATATACA [XGTACX_site1552]", "gcPBM binding intensity (ln)": 9.04}
{"sequence": "AATTAATAACAAAATAAACACACATATATAAATACA [CACACA_site8456]", "gcPBM binding intensity (ln)": 6.87}
{"sequence": "GACCAATTCAAATATGCACACAAATTTGAAAACGAT [CACACA_site9202]", "gcPBM binding intensity (ln)": 9.85}
{"sequence": "AGATTATAAAATTCTACACACATATATACATATATA [CACACA_site3485]", "gcPBM binding intensity (ln)": 6.27}
{"sequence": "ATATAAAAAAAAAAAAGTACACATAAACAAATGCAT [XGTACX_site4241]", "gcPBM binding intensity (ln)": 6.71}
{"sequence": "AATAAAAAGACATTCACACATATATATTATTTATAT [CACACA_site5936]", "gcPBM binding intensity (ln)": 6.5}
{"sequence": "AATATATAGAAACACACACACAAAAAAAAAAAAAAA [CACACA_site1326]", "gcPBM binding intensity (ln)": 6.47}
{"sequence": "TTTCACTTTTTCCAAAGTACATATATAAAAATTAAT [XGTACX_site6947]", "gcPBM binding intensity (ln)": 6.44}
{"sequence": "TTTTAATAAATATACACACACAAAAAAAAAAAAAAA [CACACA_site3971]", "gcPBM binding intensity (ln)": 6.28}
{"sequence": "ATATGTAGAAGTAATGCACACATATGTATATATATA [CACACA_site8796]", "gcPBM binding intensity (ln)": 10.3}
{"sequence": "TTAAAATATAATATTCGTACTTATTCAAAAGAAAAA [XGTACX_site2122]", "gcPBM binding intensity (ln)": 6.02}
{"sequence": "GTATGTATATATATATGTACATACTGTTTATCGTTA [XGTACX_site6168]", "gcPBM binding intensity (ln)": 6.4}
{"sequence": "AAAAAAACATAACAAAATGAAACAAAACAAAAAGAA [GTGCAC_negctrl_site577]", "gcPBM binding intensity (ln)": 7.19}
